# This is one part of the list.
# B1: Cp ZmpB (Clostridium perfringens), Q0TR08 (protein)
# chain: MNKRKIAAIILATMITNLSATTIDVLAQELNTKNNSKVEVSHDDESHQARVSKFDLYNSDKLDAYNQEFQVSRSNIKSINNNGGKYNSSTIDKAIDGNLETHWETGKPNDANFTNEVVVTFNEITNIDRIVYSARRDSARGKGFAKEFEIYASLKDEGDDFNLVSSGEYTESTRDLVEIKFNPTDFKRLKFKFKKADQNWASAAEFMFYKEDKLNEKFNGLFTDSSMNKVSEEFNTLEKLNAFENELKDHPIYDLYKEGLNNARAILTETSENPTKATLGQITYNLNDDYNNQYRMPYKNIKAIKNNGRHYAAQNIEKAIDNDVNTYWETGTLNSSSFNNEVEVEFNDLVTLDRIVYGSRQSDLKGFAEEVYIYASRTSKGDTYKLVATGAHEATKGLVEAKFEPTEFKRVKFKFKKSKQNSATLNELMFYKPDEVYSSIPKLFTDGTMSELSEEFNSLEKINAFKEKAKNHPLYNDFNETIELAESLISNPRKEDVLELEMRGDSISEAKKRKVWNFQDWQITGLSARAGDKITVYVDVAEGDPTPTLLYKQSLTQHGGATSFQLKPGKNEITIPEINYESNGIPKDVIQGGDLFFTNYKSDSQKRAPKVRIEGASKYPVFILGKSDENEVMKELEAYVEKIKAEPKTTPNIFAVSSNKSLEFVQATYALDWYKKNNKTPKYTAEQWDQYIADAMGFWGFDNSKDVNSDFNFRIMPMVKNLSGGAFMNAGNGVIGIRPGNQDAILAANKGWGVAHELGHNFDTGGRTIVEVTNNMMPLFFESKYKTKTRITDQNIWENNTYPKVGLDDYSNNELYNKADSTHLAQLAPLWQLYLYDNTFYGKFERQFRERDFGNKNREDIYKSWVVAASDAMELDLTEFFARHGIRVDDKVKEDLAKYPKPDKKIYYLNDLAMNYKGDGFTENAKVSVSTSGSNGNIKLSFSVDDENKDNILGYEIRRDGKYVGFTSNDSFVDTKSNLDEDGVYVVTPYDRKLNTLNPIEVNALQPTLSVNPVITLALGEEFNEEEYIVAKDIKGNSLSESVKVKSSNVNTSKVGEYEVLYSLEDSKGNEYTKTSKVNVVSRKEYMSDLTPKQSSNGWGTVRKDKSISGGVIGLTRDGDFVDYNKGLGLHSNAEYVYDLEGKDYDYFESYVGVDKAMSSRPASSVIFKVLVDGEEKFNSGVMRSTTPQKYVKVDVKNAKELKLIVNDAGDGDSSDHASFGDAKLATLSSKPIIKGENLAYSMDEKVDLMKGITATDIEDGNITSKVQIKSSDFVEGKSGIFTVVYSVTDSDGLTSECSRTIAVTDKETQLSDLNWKSATIGSGSVRKDRAVSGNQIRLLNEDNSVETFAKGIGTHSYSEIVYNSEGYDIFDTWVGIDRHVADKKVSSVKFKVYVDGELKAETDVMRIDTPKKRLVVDVRNSKEIKLVVDVADNGNNWDHADWADAKFRNLAEYDASELNKAIEEAKKLDLNNYTEESSEALKNAISKGEEALLSKDKETINSALEELNKEMNSLVKVDLNAVINIPDKYLLKSIQNQLNKTGDITLGDMYSLTTLTLSGVEDLTGLENAKNLETLNMDYNEVKDLRPLSKLKKLNTLNAQEQFIAAGELKPSNGKVIGDSKVYNREGKNVAKTIRVVDKNGNTILEQDAKDEFTINTKDLSSGLYGVHVLFEDEGFSGVMFYLFNV
# Key:
# Assay in all cases: glycan array binding signal (z-score within array); higher = stronger binding
# Conditions in all cases: glycan notation: IUPAC condensed, linker removed
# [1] = target: Gal(b1-4)GlcNAc(b1-3)Gal(b1-4)GlcNAc(b1-2)Man(a1-3)[Gal(b1-4)GlcNAc(b1-3)Gal(b1-4)GlcNAc(b1-2)Man(a1-6)]Man(b1-4)GlcNAc(b1-4)[Fuc(a1-6)]GlcNAc
# In short: (§1)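 Glycan array data were curated from 3228 arrays in the Consortium for Functional Glycomics database and kept only where the protein sequence was available. Glycan names were converted to IUPAC-condensed notation, and columns mapping to the same glycan were averaged. The binding signal is a within-array Z-score, averaged across arrays of the same protein sequence at different concentrations or buffers and across linkers. Negative Z-scores can be read as non-binding.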
# [2] = target: Gal(b1-4)GlcNAc(b1-3)Gal(b1-4)GlcNAc(b1-2)[Gal(b1-4)GlcNAc(b1-3)Gal(b1-4)GlcNAc(b1-6)]Man(a1-6)[Gal(b1-4)GlcNAc(b1-3)Gal(b1-4)GlcNAc(b1-2)Man(a1-3)]Man(b1-4)GlcNAc(b1-4)GlcNAc
# In short: as §1
# [3] = target: Gal(b1-4)GlcNAc(b1-3)Gal(b1-4)GlcNAc(b1-2)[Gal(b1-4)GlcNAc(b1-3)Gal(b1-4)GlcNAc(b1-6)]Man(a1-6)[Gal(b1-4)GlcNAc(b1-3)Gal(b1-4)GlcNAc(b1-2)Man(a1-3)]Man(b1-4)GlcNAc(b1-4)[Fuc(a1-6)]GlcNAc
# In short: as §1
# [4] = target: Gal(b1-4)GlcNAc(b1-3)Gal(b1-4)GlcNAc(b1-3)Gal(b1-4)GlcNAc
# In short: as §1
# [5] = target: Gal(b1-4)GlcNAc(b1-3)Gal(b1-4)GlcNAc(b1-3)Gal(b1-4)GlcNAc(b1-2)Man(a1-3)[Gal(b1-4)GlcNAc(b1-3)Gal(b1-4)GlcNAc(b1-3)Gal(b1-4)GlcNAc(b1-2)Man(a1-6)]Man(b1-4)GlcNAc(b1-4)GlcNAc
# In short: as §1
# [6] = target: Gal(b1-4)GlcNAc(b1-3)Gal(b1-4)GlcNAc(b1-3)Gal(b1-4)GlcNAc(b1-2)Man(a1-3)[Gal(b1-4)GlcNAc(b1-3)Gal(b1-4)GlcNAc(b1-3)Gal(b1-4)GlcNAc(b1-2)Man(a1-6)]Man(b1-4)GlcNAc(b1-4)[Fuc(a1-6)]GlcNAc
# In short: as §1
# [7] = target: Gal(b1-4)GlcNAc(b1-3)Gal(b1-4)GlcNAc(b1-3)Gal(b1-4)GlcNAc(b1-2)[Gal(b1-4)GlcNAc(b1-3)Gal(b1-4)GlcNAc(b1-3)Gal(b1-4)GlcNAc(b1-6)]Man(a1-6)[Gal(b1-4)GlcNAc(b1-3)Gal(b1-4)GlcNAc(b1-3)Gal(b1-4)GlcNAc(b1-2)Man(a1-3)]Man(b1-4)GlcNAc(b1-4)[Fuc(a1-6)]GlcNAc
# In short: as §1
# [8] = target: Gal(b1-4)GlcNAc(b1-3)Gal(b1-4)GlcNAc(b1-3)Gal(b1-4)GlcNAc(b1-3)Gal(b1-4)GlcNAc(b1-2)Man(a1-3)[Gal(b1-4)GlcNAc(b1-3)Gal(b1-4)GlcNAc(b1-3)Gal(b1-4)GlcNAc(b1-3)Gal(b1-4)GlcNAc(b1-2)Man(a1-6)]Man(b1-4)GlcNAc(b1-4)GlcNAc
# In short: as §1
# [9] = target: Gal(b1-4)GlcNAc(b1-3)Gal(b1-4)GlcNAc(b1-3)Gal(b1-4)GlcNAc(b1-3)Gal(b1-4)GlcNAc(b1-2)Man(a1-3)[Gal(b1-4)GlcNAc(b1-3)Gal(b1-4)GlcNAc(b1-3)Gal(b1-4)GlcNAc(b1-3)Gal(b1-4)GlcNAc(b1-2)Man(a1-6)]Man(b1-4)GlcNAc(b1-4)[Fuc(a1-6)]GlcNAc
# In short: as §1
# [10] = target: Gal(b1-4)GlcNAc(b1-3)Gal(b1-4)GlcNAc(b1-3)Gal(b1-4)GlcNAc(b1-3)Gal(b1-4)GlcNAc(b1-2)[Gal(b1-4)GlcNAc(b1-3)Gal(b1-4)GlcNAc(b1-3)Gal(b1-4)GlcNAc(b1-3)Gal(b1-4)GlcNAc(b1-6)]Man(a1-6)[Gal(b1-4)GlcNAc(b1-3)Gal(b1-4)GlcNAc(b1-3)Gal(b1-4)GlcNAc(b1-3)Gal(b1-4)GlcNAc(b1-2)Man(a1-3)]Man(b1-4)GlcNAc(b1-4)[Fuc(a1-6)]GlcNAc
# In short: as §1
# [11] = target: Gal(b1-4)GlcNAc(b1-3)Gal(b1-4)GlcNAc(b1-3)Gal(b1-4)GlcNAc(b1-3)Gal(b1-4)GlcNAc(b1-3)Gal(b1-4)GlcNAc(b1-2)Man(a1-3)[Gal(b1-4)GlcNAc(b1-3)Gal(b1-4)GlcNAc(b1-3)Gal(b1-4)GlcNAc(b1-3)Gal(b1-4)GlcNAc(b1-3)Gal(b1-4)GlcNAc(b1-2)Man(a1-6)]Man(b1-4)GlcNAc(b1-4)GlcNAc
# In short: as §1
# [12] = target: Gal(b1-4)GlcNAc(b1-3)Gal(b1-4)GlcNAc(b1-3)Gal(b1-4)GlcNAc(b1-3)Gal(b1-4)GlcNAc(b1-3)Gal(b1-4)GlcNAc(b1-2)Man(a1-3)[Gal(b1-4)GlcNAc(b1-3)Gal(b1-4)GlcNAc(b1-3)Gal(b1-4)GlcNAc(b1-3)Gal(b1-4)GlcNAc(b1-3)Gal(b1-4)GlcNAc(b1-2)Man(a1-6)]Man(b1-4)GlcNAc(b1-4)[Fuc(a1-6)]GlcNAc
# In short: as §1
# [13] = target: Gal(b1-4)GlcNAc(b1-3)Gal(b1-4)GlcNAc(b1-3)Gal(b1-4)GlcNAc(b1-3)Gal(b1-4)GlcNAc(b1-3)Gal(b1-4)GlcNAc(b1-2)[Gal(b1-4)GlcNAc(b1-3)Gal(b1-4)GlcNAc(b1-3)Gal(b1-4)GlcNAc(b1-3)Gal(b1-4)GlcNAc(b1-3)Gal(b1-4)GlcNAc(b1-6)]Man(a1-6)[Gal(b1-4)GlcNAc(b1-3)Gal(b1-4)GlcNAc(b1-3)Gal(b1-4)GlcNAc(b1-3)Gal(b1-4)GlcNAc(b1-3)Gal(b1-4)GlcNAc(b1-2)Man(a1-3)]Man(b1-4)GlcNAc(b1-4)[Fuc(a1-6)]GlcNAc
# In short: as §1
# [14] = target: Gal(b1-4)GlcNAc(b1-3)Gal(b1-4)GlcNAc(b1-3)Gal(b1-4)GlcNAc(b1-3)Gal(b1-4)GlcNAc(b1-3)Gal(b1-4)GlcNAc(b1-3)Gal(b1-4)GlcNAc(b1-2)Man(a1-3)[Gal(b1-4)GlcNAc(b1-3)Gal(b1-4)GlcNAc(b1-3)Gal(b1-4)GlcNAc(b1-3)Gal(b1-4)GlcNAc(b1-3)Gal(b1-4)GlcNAc(b1-3)Gal(b1-4)GlcNAc(b1-2)Man(a1-6)]Man(b1-4)GlcNAc(b1-4)GlcNAc
# In short: as §1
# [15] = target: Gal(b1-4)GlcNAc(b1-3)Gal(b1-4)GlcNAc(b1-3)GalNAc
# In short: as §1
# [16] = target: Gal(b1-4)GlcNAc(b1-3)Gal(b1-4)GlcNAc(b1-3)[Gal(b1-4)GlcNAc(b1-3)Gal(b1-4)GlcNAc(b1-6)]GalNAc
# In short: as §1
# [17] = target: Gal(b1-4)GlcNAc(b1-3)Gal(b1-4)GlcNAc(b1-6)[Gal(b1-3)]GalNAc
# In short: as §1
# [18] = target: Gal(b1-4)GlcNAc(b1-3)Gal(b1-4)[Fuc(a1-3)]GlcNAc(b1-3)Gal(b1-4)[Fuc(a1-3)]GlcNAc
# In short: as §1
# [19] = target: Gal(b1-4)GlcNAc(b1-3)GalNAc
# In short: as §1
# [20] = target: Gal(b1-4)GlcNAc(b1-3)[Fuc(a1-3)GlcNAc(b1-6)]Gal(b1-4)Glc
# In short: as §1
# [21] = target: Gal(b1-4)GlcNAc(b1-3)[Gal(b1-4)GlcNAc(b1-6)]Gal(b1-4)GlcNAc
# In short: as §1
# [22] = target: Gal(b1-4)GlcNAc(b1-3)[GlcNAc(b1-6)]Gal(b1-4)GlcNAc
# In short: as §1
# [23] = target: Gal(b1-4)GlcNAc(b1-6)Gal(b1-4)GlcNAc
# In short: as §1
# [24] = target: Gal(b1-4)GlcNAc(b1-6)GalNAc
# In short: as §1
# [25] = target: Gal(b1-4)GlcNAc(b1-6)[Gal(b1-3)]GalNAc
# In short: as §1
# [26] = target: Gal(b1-4)GlcNAc(b1-6)[Gal(b1-4)GlcNAc(b1-3)]GalNAc
# In short: as §1
# Gal(b1-4)GlcNAc6P = target: Gal(b1-4)GlcNAc6P
# In short: as §1
# Gal(b1-6)Gal = target: Gal(b1-6)Gal
# In short: as §1
# Gal3S(b1-3)GalNAc = target: Gal3S(b1-3)GalNAc
# In short: as §1
# Gal3S(b1-3)GlcNAc = target: Gal3S(b1-3)GlcNAc
# In short: as §1
binder,measurement,setting,value
B1,glycan array binding signal (z-score),[1],0.099
same,glycan array binding signal (z-score),[2],0.278
same,glycan array binding signal (z-score),[3],-0.328
same,glycan array binding signal (z-score),[4],-0.425
same,glycan array binding signal (z-score),[5],0.247
same,glycan array binding signal (z-score),[6],0.142
same,glycan array binding signal (z-score),[7],-0.102
same,glycan array binding signal (z-score),[8],0.116
same,glycan array binding signal (z-score),[9],0.237
same,glycan array binding signal (z-score),[10],-0.093
same,glycan array binding signal (z-score),[11],-0.374
same,glycan array binding signal (z-score),[12],0.666
same,glycan array binding signal (z-score),[13],3.56
same,glycan array binding signal (z-score),[14],0.497
same,glycan array binding signal (z-score),[15],-0.02
same,glycan array binding signal (z-score),[16],-0.373
same,glycan array binding signal (z-score),[17],0.206
same,glycan array binding signal (z-score),[18],-0.332
same,glycan array binding signal (z-score),[19],-0.387
same,glycan array binding signal (z-score),[20],-0.391
same,glycan array binding signal (z-score),[21],-0.301
same,glycan array binding signal (z-score),[22],0.178
same,glycan array binding signal (z-score),[23],-0.138
same,glycan array binding signal (z-score),[24],0.019
same,glycan array binding signal (z-score),[25],-0.007
same,glycan array binding signal (z-score),[26],0.086
same,glycan array binding signal (z-score),Gal(b1-4)GlcNAc6P,0.166
same,glycan array binding signal (z-score),Gal(b1-6)Gal,-0.09
same,glycan array binding signal (z-score),Gal3S(b1-3)GalNAc,0.011
same,glycan array binding signal (z-score),Gal3S(b1-3)GlcNAc,-0.111

# — the supplement of paper PMC8728848
